Test results taken from the supplement of paper PMC11417369.
Some of the results follow.

The sequences below were run on PfHDP1 homeodomain (GST-tagged) (assay: gcPBM binding intensity (ln(normalized median fluorescence intensity)); higher = stronger DNA binding).
Method in brief: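 Using an Agilent 4 × 180k array, primer-extended double-stranded 36-bp intergenic genomic probes and negative controls were exposed for 1 h to GST-fused P. falciparum DNA-binding domains expressed in E. coli. Binding was carried out in 1× PBS with 1% milk, 0.2 mg/ml BSA, 0.5% salmon testes DNA and 0.03% Triton X-100, and protein was detected with Alexa488 anti-GST antibody and a 488 nm scan. Binding intensity is the highest Masliner-normalised natural-log median intensity across replicate spots of either probe orientation.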

Row | Sequence | gcPBM binding intensity (ln)
1 | AAGCATTTTTTTTAAAGCCTGTTCATCATCCTTACC [CACACA_negctrl_site129] | 6.22
2 | AAATAAATAAATAGAGTGCATATATATATATATTTT | 7.78
3 | CTTTTTATTTATCATACACACACAGAAAAAAAAAAA [CACACA_site7935] | 6.59
4 | ATATACAAAGGATTAACACACATATTATTATAGATA [CACACA_site6966] | 6.43
5 | TATTTATATATTTGTTGTACGTATTTATATATTCTT [XGTACX_site3622] | 6.55
6 | TTATATTAATATTATATTTAAAAATAAAATATAAAT [TGCATGCA_negctrl_site79] | 5.8
7 | AAACAAAAAAGAAAAACAATGAGATAAAGAAGAGAA [CACACA_negctrl_site804] | 7.09
8 | AAAAGAAAAATATTCACACATATAAATAATATATAA [CACACA_site4201] | 6.11
9 | TTTAATTATTTATTTTGTACATATATTATATATATA [XGTACX_site5760] | 6.86
10 | ATTTTTATATATATCTGTACTAAAAAAAAAAAAAAA [XGTACX_site5258] | 6.47
11 | AGAAGTAAAAAAATAGCACACACACTAATACCAACA [CACACA_site8354] | 7.15
12 | AAAAGAGAAATGGGCACACACACACCCATTATATAT [CACACA_site1530] | 6.43
13 | ATATATACATACATATGTACATATGTAGATATATTT [XGTACX_site1230] | 6.43
14 | TATTTGTTTAAATTCACACACGTATATATATTTATA [CACACA_site5651] | 6.56
15 | ATTATGAAATATCGTGCACACACGAATAATATAAGA [CACACA_site1294] | 9.49
16 | TACGTTTTAAAACACACACACAAAAAAAAAAAAAAA [CACACA_site3876] | 6.46
17 | ATTTTTTTTGTTTATTCTTATGTGGTTATTAAATTA [CACACA_negctrl_site1000] | 6.81
18 | ATTAATTTGATTTTAATAAGAATATTTGTGGGGAAT [GTGCAC_negctrl_site198] | 6.62
19 | TGAATAATAAAAAATACACACACATATATATATATT [CACACA_site9146] | 6.54
20 | TTTTATTTTTGTTGGTCCCTCATTTAAGTTAATAAA [TGCATGCA_negctrl_site465] | 6.5
21 | TTTTCAATATATATATGCTGAATTTATAATTTGTAT [CACACA_negctrl_site1774] | 6.08
22 | ATATTGATTTGTGGCACACATATAATATATTCCTAT [CACACA_site3046] | 6.16

Row | Sequence | gcPBM binding intensity (ln)
23 | TTATTTTGATCTGGTTGTACATATAATATATAGTGG [XGTACX_site357] | 7.31
24 | TCTTGTTCGCCCTATTGTACAAACATATATTGTGAT [XGTACX_site2884] | 7.27
25 | ATACATTCAAAATATACACACATATATCTATAATAT [CACACA_site6576] | 6.7
26 | TTTCTTTAGTAGAATGTAAAAAATATAATCTTCTTA [TGCATGCA_negctrl_site298] | 5.5
27 | TATTTTGAAATGGAAAGGATATAGAACTTAAACAAA [CACACA_negctrl_site1530] | 6.49
28 | AACATACGACAATACGCACACATATAAGTACATATT [CACACA_site8584] | 7.45
29 | TTTATAAAAAGCATAACACACACATGTCAATATATA [CACACA_site8286] | 6.67
30 | TTCATAAAAAATGTAGTGCATTGAATAAAATTACAT [GTGCAC_site9393] | 8
31 | TTTTATATCTACCTTTGTACATATTTATTTTTTTTA [XGTACX_site7872] | 6.89
32 | ATATTGAAATTAAAAAAATATATGAACAAATGATGA [CACACA_negctrl_site602] | 6.48
33 | TTAATTTTGGTAAATGCATGTAATTAAAAATAAAAA [TGCATGCA_site234] | 6.61
34 | TAAATTTTTTTTTTTTGTACACAAAAATATAATATT [XGTACX_site8151] | 6
35 | TTATGTAGTATAATGAGTACTAAATATAGATATGTT [XGTACX_site6335] | 6.56
36 | AATTACTTAAATTATTGTACCCTAATGTTAATTTCA [XGTACX_site825] | 6.44
37 | AATATTATAAATGATACACACTTAAAATACAGACAC [CACACA_site8868] | 6.77
38 | TATAAATATGTGTATACACACCTGATAAAGGTATAT [CACACA_site7283] | 7.41
39 | ATATATATATATATATGTACATATACACATGTGTGC [XGTACX_site168] | 9.56
40 | AAATAAATAATAAATAAATAAATAAAATACCAAATA [GTGCAC_negctrl_site620] | 6.48
41 | AAAATTATTAAATATGTACACACGTACATTTTATAA [CACACA_site8750] | 6.1
42 | TTCAATTATATTCTTTGTACGAATCTTCTATAAATT [XGTACX_site4346] | 6.61
43 | GCTTATGCTCAATATTGTACTTTTTTTATTTATTCA [XGTACX_site8863] | 10.6
44 | TACTTCTTTTTTATTTATTTTACTTTTTATTCTGTA [CACACA_negctrl_site772] | 6.61

Row | Sequence | gcPBM binding intensity (ln)
45 | ATTTAATTTTTTTTTAAACACACATTTTTTTATTTA [CACACA_site8880] | 6.43
46 | TGGCTTATTCAGAAATGTACACATATAAATATATAT [XGTACX_site3765] | 6.29
47 | TGAATAAATAAGATACGTACACACATATACAAAATA [XGTACX_site7758] | 6.79
48 | AAAATAATATATGTATGTACACAATTATTTATAAGT [XGTACX_site7267] | 6.46
49 | TTTCTTTTAATTATCCGTACACAAACAATAAAATAA [XGTACX_site7841] | 6.7
50 | TACATAAACATTTATACACACATTATATATACATAT [CACACA_site8028] | 6.89
51 | TGTGCTCGCTATTACACACTCATTGGGATAAAATTG [CACACA_site2029] | 7.48
52 | TACAGACATAGACACACACACACGCATAAAAAAAAA [CACACA_site6820] | 6.83
53 | TTATAAATTCAATGTACTACACAAAATGAATTTAAT [XGTACX_site6683] | 6.23
54 | ATATAAGTACGGCATGCATGCACATTTTTTTATTCC [TGCATGCA_site101] | 7.81
55 | TTCCTATAAAAAAACACACACATATAAATATAAATA [CACACA_site7154] | 6.83
56 | AAAAAAAAAAAAAACACACACACACGCAAATACATA [CACACA_site6474] | 6.86
57 | TCCTTAAATATAAAGGTGCTATGCAGACCTTATGTT [GTGCAC_site9472] | 5.98
58 | GTCATCATAATCTATTGTACAAAAATTTATACAGAT [XGTACX_site1059] | 6.74
59 | ATAAATACATTAAAATGTACATAAAAATATTACTGG [XGTACX_site1484] | 6.47
60 | TATAAAAATAAGTATACACACAAAATGCGTAACTTT [CACACA_site1295] | 6.15
61 | TACATTAAACGAATAGTGCAAGAAGTATTCGTATAA [GTGCAC_site9939] | 7.39
62 | TAATACTTAAAATGTTGTACATAATAATTTTATATT [XGTACX_site5403] | 6.09
63 | CATATGCGTCTTGCCTTGCACACTTTTATGAAAAAA [CACACA_site2055] | 8.57
64 | TATAACAAGTAATGGTGTACATTATATTATGTAATA [XGTACX_site2761] | 6.35
65 | TATATATATATATATACATGCATTTCTCATGTACAT [TGCATGCA_site621] | 9.46
66 | TAGTTGTGAGTTACATGTACATGTATTTATTTTTTA [XGTACX_site7088] | 6.82

Row | Sequence | gcPBM binding intensity (ln)
67 | AATGTATAAAAGTTTTGTACATATTCTCACACATAT [XGTACX_site965] | 6.47
68 | ATATACCATATGCATGGTACACATTTACAACAAAAA [XGTACX_site3142] | 6.37
69 | ATAACGTAAACAATGTGGACACATACATAAATATAT [XGTACX_site707] | 6.63
70 | GATAACAATATGTGTACACATTTATATCTCCACATA [CACACA_site5442] | 7.24
71 | TTTATTAAATAAAGCACACACAACAACTTTTCACAA [CACACA_site4132] | 6.94
72 | TTACAAAACCGATGTTGTACATTCAATAGATAATGT [XGTACX_site3806] | 6.15
73 | AAAGAAAAAAATAATTGTACATTTATATTTAATTTA [XGTACX_site8003] | 6.2
74 | TTTTTATTTATTAATACACACACACCCACCCACAAA [CACACA_site7965] | 8.62
75 | TTTTTTTTTAAATAATGTACTTTTCATTATTTAGAT [XGTACX_site1706] | 6.13
76 | AAAAAAAAATTAAAAACACACATATAAATAAATATA [CACACA_site6845] | 6.46
77 | AACAAAATAGGGAACACACACATGTCAATATATAAA [CACACA_site2596] | 6.89
78 | TGAACACGCACAAATACACACAAAAAAAATAAATAA [CACACA_site6257] | 7.4
79 | CCATTAAGACACATTGCACACGTGCACCCATAGAAA [CACACA_site4388] | 10.2
80 | CACATACACATACAAACACACATTAGATATAAATAT [CACACA_site6854] | 6.91
81 | AAAAAAAATTAATAGGGTACATGAAAAGTGGAATAT [XGTACX_site618] | 7.23
82 | ATAGAAGAAATATGCACACATACATTGAAATGTTTT [CACACA_site321] | 9.9
83 | ATATATATTTTTATTTGTACATAATTTTTTTTGTGA [XGTACX_site6378] | 6.83
84 | ATATATGTAATAAATAGTACACACACACATATATAT [XGTACX_site2817] | 7.35
85 | TTTTTTTTTTTTTGCACACACATATATAGATATATA [CACACA_site7784] | 10.1
86 | ATAAAATTGTTTAAATGTACATATGAACAGTCAGTA [XGTACX_site5140] | 6.67
87 | ATAGTATAACAGCAATGTACACATATTTGTGTATAT [XGTACX_site7899] | 6.76
88 | TATATATATAAACACACACACACATATATATATATT [CACACA_site8814] | 7.33
